# Experimental data as given in PubChem BioAssay AID488969 (Vanderbilt High Throughput Screening Facility, 2010).
# In all, about 110,000 compounds were measured (“z-score”: median about -0.1, highest 2% from about 2 on). Some of the results follow.
# Molecular target: Metabotropic glutamate receptor 8 (Rattus norvegicus) (UniProt P70579)
# Experiment: mGluR8 Gi/Go-coupled signaling modulation – cell-based, rat, thallium flux, HTS, primary screen (AID 488969)
# Settings: HEK293 rat mGluR8, GIRK (G protein-gated inwardly rectifying potassium channel) thallium flux, FluoZin2; at 10 µM; stronger effect = higher value; submaximal glutamate (EC20) added with thallium
# UniProt P70579, sequence (P70579 whole entry, looked up): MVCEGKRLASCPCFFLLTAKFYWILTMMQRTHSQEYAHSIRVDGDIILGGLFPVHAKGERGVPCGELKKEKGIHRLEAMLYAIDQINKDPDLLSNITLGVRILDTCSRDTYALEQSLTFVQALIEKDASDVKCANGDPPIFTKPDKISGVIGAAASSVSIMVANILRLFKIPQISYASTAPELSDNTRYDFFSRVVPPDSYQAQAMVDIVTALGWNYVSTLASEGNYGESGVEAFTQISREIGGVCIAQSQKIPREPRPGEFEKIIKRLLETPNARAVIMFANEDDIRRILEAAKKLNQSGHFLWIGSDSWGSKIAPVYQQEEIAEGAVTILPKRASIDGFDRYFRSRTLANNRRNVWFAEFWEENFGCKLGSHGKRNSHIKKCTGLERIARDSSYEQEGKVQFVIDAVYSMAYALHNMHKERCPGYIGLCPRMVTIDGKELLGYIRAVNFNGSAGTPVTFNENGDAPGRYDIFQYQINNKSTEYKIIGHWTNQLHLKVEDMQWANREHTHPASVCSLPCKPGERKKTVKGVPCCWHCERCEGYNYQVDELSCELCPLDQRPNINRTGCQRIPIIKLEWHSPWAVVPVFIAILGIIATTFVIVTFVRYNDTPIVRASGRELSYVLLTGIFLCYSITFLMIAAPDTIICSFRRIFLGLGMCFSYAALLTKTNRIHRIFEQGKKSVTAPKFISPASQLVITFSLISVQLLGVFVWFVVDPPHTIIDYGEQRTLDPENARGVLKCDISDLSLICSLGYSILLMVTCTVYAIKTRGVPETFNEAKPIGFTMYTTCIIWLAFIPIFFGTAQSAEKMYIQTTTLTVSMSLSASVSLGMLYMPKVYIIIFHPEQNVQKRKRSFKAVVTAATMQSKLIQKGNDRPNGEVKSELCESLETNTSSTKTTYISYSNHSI
row,Structure (SMILES),z-score
1,O=C(NCCc1c[nH]c2ccccc12)C(=O)NCC(c1ccco1)N1CCN(c2ccccc2)CC1 (stereo not drawn),-0.273
2,ONC(=Nc1ccc(Cl)cc1)c1ccccc1Cl,-0.317
3,COc1ccccc1NS(=O)(=O)c1ccc(NN=C2CCCC2)c([N+](=O)[O-])c1,-0.0637
4,c1ccc2c(c1)OCC(c1csc3ncnc(N4CCCCC4)c13)O2 (stereo not drawn),0.241
5,Nc1nc(=S)[nH]c2c1C1(CCCC1)Cc1ccccc1-2,0.292
6,Cn1nnnc1SCC(=O)c1ccc(Br)s1,0.107
7,O=C(Nc1ccc(Cl)cc1)C1CCC(=O)N1Cc1ccccc1Cl (stereo not drawn),0.406
8,CCCOc1ccc(-c2nc(C#N)c(N3CCN(C)CC3)o2)cc1,0.0206
9,O=C(COc1cccc2ccccc12)NNC(=O)C1CCCO1 (stereo not drawn),-0.256
10,CCCn1c(SCC(=O)Nc2ccc(C)c(S(=O)(=O)N3CCOCC3)c2)n[nH]c1=O,-1.09
11,Cc1cc(NS(=O)(=O)c2ccc(NC(=S)NC(=O)c3ccc(Cl)cc3Cl)cc2)no1,-0.373
12,Cc1cc(OCC(=O)NCc2ccccn2)cc(C)c1Br,-0.0558
13,COc1ccc2nc(Nc3nc(-c4cc5ccccc5oc4=O)cs3)sc2c1,0.228
14,COc1cc2ccccc2cc1-c1nnc(COc2ccccc2)o1,-0.463
15,CCN1C(=O)/C(=C\c2cn(CCC#N)nc2-c2ccc(F)cc2)SC1=S,0.195
16,Cc1c(Cl)c([N+](=O)[O-])nn1CC(=O)Nc1ccc2c(c1)OCO2,-0.00978
17,CCCCCC(C)NC(=O)c1ccoc1C (stereo not drawn),-0.17
18,Cc1ccc(N2CN(Cc3cccnc3)CNC2=S)cc1,1.11
19,C/C(=N\OCC(=O)Nc1ccccc1C(C)(C)C)c1ccc2c(c1)OCCO2,-0.212
20,Cc1ccc(SC(C)c2nc(-c3cccnc3)no2)cc1 (stereo not drawn),-0.789
21,Cn1c(=O)oc2cc(S(=O)(=O)NCCC(=O)N3CC=C(c4ccccc4)CC3)ccc21,0.133
22,COc1ccc(C(O)(C(=O)NNc2ccc(C)cc2)c2cccs2)cc1 (stereo not drawn),0.0939
23,CCOC(=O)c1ccc(NC(=S)NC(=O)c2nn(CC)cc2Br)cc1,1.17

row,Structure (SMILES),z-score
1,Cc1cccc(N2C(=O)/C(=C\c3ccc(OC(F)F)cc3)c3ccccc3C2=O)c1,-0.0122
2,CCOC(=O)c1cc2c(=O)n3cccc(C)c3nc2n(Cc2cccnc2)c1=N,-0.0747
3,CO/N=C/NC(=O)c1ccc([N+](=O)[O-])c(CS(=O)(=O)c2ccc(Cl)cc2)c1,-0.17
4,COc1ccccc1OCC(=O)n1cc(C(=O)c2cc(Cl)cc(Cl)c2O)cn1,-0.0132
5,COc1cc(C(=O)NCc2nnc(SCC(=O)Nc3cc(C)cc(C)c3)o2)cc(OC)c1OC,-0.362
6,O=C(Nc1ccc(N2CCOCC2)cc1)NC1CCCCC1,0.289
7,O=C(N/N=C\c1cccc([N+](=O)[O-])c1O)C1COc2ccccc2O1 (stereo not drawn),-0.13
8,O=C1NCCCC2c3c(cc(Br)c(O)c3Br)OC12N1CCCCC1 (stereo not drawn),-0.129
9,O=C1CC(SCc2nc3ccccc3[nH]2)C(=O)N1c1ccc(Cl)cc1 (stereo not drawn),0.13
10,CSc1nc(Oc2ccc(=O)[nH]n2)nc(N(C)C)n1,-0.213
11,COc1ccc(NC(=S)NCc2ccco2)c(OC)c1,-0.214
12,CSCCC(NC(=O)c1ccccc1)C(=O)NC1CC1 (stereo not drawn),0.177
13,Cc1noc(C)c1CSCC(=O)OCC(=O)NC1CCCCC1,0.822
14,CCCn1c(=N)c(C(=O)NCc2ccc3c(c2)OCO3)cc2c(=O)n3cccc(C)c3nc21,1.02
15,COC(=O)C(Cc1ccccc1)NC(=O)CSc1nc(C)cc(=O)[nH]1 (stereo not drawn),0.408
16,COc1cc(C2C(C#N)=C(N)Oc3cc(N)ccc32)cc(OC)c1OC (stereo not drawn),-1
17,CSCCC(C(=O)N1C[C@]2(C)C[C@H]1CC(C)(C)C2)N1C(=O)c2ccccc2C1=O (stereo partly drawn),-0.0688
18,CCOC(=O)CSC1=C(C#N)C(=O)NC2(CCCCC2)S1,-0.247
19,N=c1c2c(-c3ccccc3)c(-c3ccccc3)n(Cc3ccco3)c2ncn1CCO,0.759
20,C1=CC2CC1CC2CNCc1ccco1 (stereo not drawn),0.0275
21,O=[N+]([O-])c1cccc(/C=N/Nc2cc(Cl)nc(-c3ccccc3)n2)c1,-0.108
22,COc1ccc(Nc2cc(C(=O)NCCCN3CCOCC3)c3ccccc3n2)c(OC)c1,0.191
23,CCc1ccc(N2CC(C(=O)Nc3ccc(C)c(S(=O)(=O)N4CCOCC4)c3)CC2=O)cc1 (stereo not drawn),0.319

row,Structure (SMILES),z-score
1,CCOC(=O)c1cnc(SCc2cccc3ccccc23)nc1N,-0.552
2,CS(=O)(=O)NN1C(=O)c2ccccc2NC1c1cccc2cccnc12 (stereo not drawn),0.0807
3,COc1ccc(C(=O)Nc2cccc(-c3cnc4ccccc4n3)c2)cc1,0.0862
4,Cc1cc(OC(=O)c2ccc(Cl)cc2Cl)nc(C)n1,-1.35
5,CCCCNC(=O)C1CCN(S(=O)(=O)c2c(C)noc2/C=C\c2ccc(OC)cc2)CC1,-0.000832
6,COc1ccc(C(=O)Nc2cccc(-c3nc4ncccc4o3)c2C)cc1OC,0.116
7,CCOc1ccc(N(CC(=O)OC)S(=O)(=O)c2ccc(OC)c(OC)c2)cc1,0.0607
8,CCOC(=O)C1=C(C)Nc2nc(SCC)nn2C1c1ccc(OC)cc1 (stereo not drawn),-0.135
9,COc1ccc(CN2CCN(c3ccc(F)cc3)CC2)c(OC)c1OC,-0.227
10,Cc1c(NC(=O)C2Cc3ccccc3CN2C(=O)c2ccco2)c(=O)n(-c2ccccc2)n1C (stereo not drawn),0.163
11,CCCc1nc(NCc2ccccc2)c(C#N)c2c1CCCC2,-0.119
12,CCn1c(COc2ccc(C)cc2)nnc1SCc1nc2ccccc2[nH]1,-0.0293
13,C/C=C/c1ccc(OCCn2cncn2)c(OC)c1,-0.203
14,CCn1cc(CNC(=O)/C=C/c2ccc([N+](=O)[O-])cc2)c(C)n1,-0.204
15,CCC(=O)N1CCc2cc(S(=O)(=O)N3CCc4ccccc43)ccc21,-0.163
16,Cc1cccc(-c2cc(C(=O)N3CCCc4ccccc43)c3ccccc3n2)c1,-0.00153
17,CCC1(CC)Cc2ccccc2C(CC(=O)N2CCOCC2)=N1,-0.156
18,Cc1ccc2c3c(c(SCC(=O)Nc4nccs4)nc2c1)CCCC3,0.493
19,Cc1ccc(S(=O)(=O)N2CCOCC2)cc1C(=O)NCCN1C(=O)S/C(=C\c2ccccc2Cl)C1=O,0.000791
20,COc1ccc(C(=O)NC(CO)c2nnc(SCc3ccc(Cl)c(Cl)c3)n2C)cc1 (stereo not drawn),0.242
21,CCCS(=O)(=O)C(=C1NCCO1)S(=O)(=O)CCC,-0.0817
22,O=C(NC1CCCCC1)C1CCCN(S(=O)(=O)c2cccs2)C1 (stereo not drawn),-0.234
